Assay results: a collection of fitness landscapes (doi:10.1016/j.celrep.2020.107928)
In all, about 81,000 sequences were measured (“one-hybrid fitness for binding parS DNA”: median about -0.17, highest 2% from about 0.51 on). The list shows a part of the results.

B1: Caulobacter ParB omega fusion; a variant is named by its letters at X, in order, B8GW30 (parent)
chain: MESVVVGEPGMSEGRRGLGRGLSALLGEVDAAPAQAPGEQLGGSREAPIEILQRNPDQPRRTFREEDLEDLSNSIREKGVLQPILVRPSPDTAGEYQIVAGERAWRAAQRAGLKTVPIMVRELDDLAVLEIGIIENVQRADLNVLEEALSYKVLMEKFERTQENIAQTIGKSXSHVANXMRLLXLPDEVQSYLVSGELTAXHARAIAAAADPVALAKQIIEGGLSVRETEALARKAPNLSAGKSKGGRPPRVKDTDTQALESDLSSVLGLDVSIDHRGSTGTLTITYATLEQLDDLCNRLTRGI

Variants of: B1
Assay: one-hybrid fitness for binding parS DNA (scaled: cognate 1, non-cognate 0); higher = stronger binding
Settings: with parS DNA site
How it was run: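 Fitness here means the log change in variant-to-wild-type read ratio between plasmids sequenced before and after selection. That scale was set so cognate equals 1 and non-cognate equals 0. The selection was a bacterial one-hybrid screen of Caulobacter ParB libraries, four specificity codons randomised, in E. coli USO carrying a HIS3 reporter with the site 19 bp from the promoter, grown 48 hours at 37°C on M9-minus-histidine with 0.1 mM IPTG and 5 mM 3-AT.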

Variant	one-hybrid fitness for binding parS DNA
AADL	≤ 0.2
DIHR	≤ 0.2
CDTR	≤ 0.2
VLMS	≤ 0.2
PVKI	≤ 0.2
VWNC	≤ 0.2
QSKK	≤ 0.2
QMIG	≤ 0.2
YWYV	≤ 0.2
RYDD	≤ 0.2
ISLR	≤ 0.2
HMMA	≤ 0.2
PLLP	≤ 0.2
FSSY	≤ 0.2
LCEP	≤ 0.2
EPTN	≤ 0.2
FQAG	≤ 0.2
TLEW	≤ 0.2
AHTF	≤ 0.2
TFYT	≤ 0.2
DSCY	≤ 0.2
MCLY	≤ 0.2
DCYS	≤ 0.2
RYFC	0.965
KFRT	≤ 0.2
SMGN	≤ 0.2

Variant	one-hybrid fitness for binding parS DNA
YPTD	≤ 0.2
DLAW	≤ 0.2
WETT	≤ 0.2
DNTF	≤ 0.2
ADFR	≤ 0.2
RRHY	0.446
NAIG	≤ 0.2
MVHC	≤ 0.2
GADI	≤ 0.2
DTAS	≤ 0.2
HLSC	≤ 0.2
SATG	≤ 0.2
NAWA	≤ 0.2
LDDT	≤ 0.2
GVTY	≤ 0.2
NGRH	≤ 0.2
NRYG	≤ 0.2
ERKL	≤ 0.2
AIGA	≤ 0.2
ERLT	≤ 0.2
TWAI	≤ 0.2
SGDS	≤ 0.2
LQRR	≤ 0.2
TSIF	≤ 0.2
GHPG	≤ 0.2
SKQC	≤ 0.2

Variant	one-hybrid fitness for binding parS DNA
DDPR	≤ 0.2
LSVV	≤ 0.2
YLHD	≤ 0.2
EKFT	≤ 0.2
SIFD	≤ 0.2
PCRS	≤ 0.2
HPMS	≤ 0.2
CSLL	≤ 0.2
VTIM	≤ 0.2
FRDG	≤ 0.2
SMLK	≤ 0.2
HTVC	≤ 0.2
QASQ	≤ 0.2
PMER	≤ 0.2
ASGE	≤ 0.2
CKGS	≤ 0.2
DTKM	≤ 0.2
KTPI	≤ 0.2
DALD	≤ 0.2
PHRR	≤ 0.2
HATS	≤ 0.2
YITY	0.276
KDCL	≤ 0.2
IRGR	≤ 0.2
YEHS	≤ 0.2
ASGT	≤ 0.2

Variant	one-hybrid fitness for binding parS DNA
PMGG	≤ 0.2
AAFP	≤ 0.2
HNSE	≤ 0.2
GFNP	≤ 0.2
YMIS	≤ 0.2
LMGT	≤ 0.2
HKIE	≤ 0.2
EACL	≤ 0.2
FGMF	≤ 0.2
RSGV	≤ 0.2
KFNG	≤ 0.2
CSIV	≤ 0.2
SLYQ	≤ 0.2
AQMR	≤ 0.2
YYHR	≤ 0.2
YTTT	≤ 0.2
WDVG	≤ 0.2
SVHE	≤ 0.2
PICL	≤ 0.2
CIGT	≤ 0.2
IQNS	≤ 0.2
CQRC	≤ 0.2
NAYC	≤ 0.2
LRAL	≤ 0.2
AVQD	≤ 0.2
PLNC	≤ 0.2

Variant	one-hybrid fitness for binding parS DNA
EVYC	≤ 0.2
RHAT	0.865
LCNR	≤ 0.2
RSHC	0.968
EKVT	≤ 0.2
RPES	≤ 0.2
GNYQ	≤ 0.2
VCRE	≤ 0.2
MQMS	≤ 0.2
GNWP	≤ 0.2
HISS	≤ 0.2
LFFG	≤ 0.2
DIVV	≤ 0.2
MWKR	≤ 0.2
YFHC	≤ 0.2
RCHW	0.247
DVPP	≤ 0.2
ALID	≤ 0.2
MKKY	≤ 0.2
LSFF	≤ 0.2
ISTT	≤ 0.2
DHMG	≤ 0.2
VTKR	≤ 0.2
KGLV	≤ 0.2
QVQR	≤ 0.2
ASNV	≤ 0.2

Variant	one-hybrid fitness for binding parS DNA
ALHN	≤ 0.2
YATG	≤ 0.2
QRVG	≤ 0.2
ATEG	≤ 0.2
HIQT	≤ 0.2
ESWT	≤ 0.2
KDST	≤ 0.2
SIGL	≤ 0.2
RGCC	0.534
KKVI	≤ 0.2
TNNT	≤ 0.2
RILG	0.993
WQHS	≤ 0.2
LRQC	≤ 0.2
KRMG	≤ 0.2
EQHR	≤ 0.2
RVCC	0.966
MTSW	≤ 0.2
WTNG	≤ 0.2
RPRY	≤ 0.2
CARA	≤ 0.2
TVAC	≤ 0.2
RQNS	0.921
